Source: patent publication US11732029B2, “Methods and compositions for the treatment of wounds” (The University of Chicago, priority 2017, dated 2023)

T1: rhBMP-2 (Homo sapiens, UniProt P12643)
T1 construct: purchased R&D Systems; host or cells: CHO
T1 sequence (P12643 283-396): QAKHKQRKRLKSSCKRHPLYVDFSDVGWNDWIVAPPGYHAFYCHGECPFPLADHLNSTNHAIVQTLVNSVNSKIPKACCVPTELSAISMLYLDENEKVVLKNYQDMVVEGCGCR


Legend:
rhBMP-2 = biological target: T1, rhBMP-2; assay: Binding assay to rhBMP-2 (ELISA); conditions: 50 nM rhBMP-2 coated, 50 nM FabCol variant
Method: ELISA plates (NUNC MaxiSorp) were coated with 50 nM of recombinant human BMP-2 (CHO produced, R&D Systems, Minneapolis Minn., USA) overnight at room temperature. The plate was then blocked using 2% BSA for 2 h at room temperature, after which the plate was washed in PBST and incubated with 50 nM of the FabCol-FgHBD conjugates, FabCol-LamLG4 or FabCol-p(FgHBD) recombinant proteins diluted in PBS-0.05% Tween (PBST)+0.1% BSA.

[1] = test system: PlGF-2-engineered growth factors; assay: Binding assay to engineered super-affinity growth factors (ELISA); conditions: 100 nM GF coated, 100 nM FabCol variant
Method: Engineered super-affinity growth factors and mouse wild-type VEGF-C were produced as described in Martino et al., Science, 2014. Other wild-type recombinant human growth factors were purchased from R&D Systems or Peprotech (Rocky Hill N.J., USA). Growth factors were coated on medium-binding plates (Greiner) at a concentration of 100 nM for 1 h at 37° C. Plates were then blocked with 2% BSA in PBS for 2 h at room temperature. Then, the FabCol variants (100 nM) were diluted in 1% BSA and incubated in the wells for 1 h at room temperature. The plate was washed four times in PB ST and an HRP-anti-human Fab antibody was used to detect bound FabCol variants. Plate absorbance was read as described above.

binding to rhBMP-2 (rhBMP-2) | binding to PlGF-2-engineered growth factors vs non-engineered wild-type growth factors [1] | Molecule
strongly bound | significantly higher | FabCol-LamLG4: fusion: LamLG4 domain at C-terminus of FabCol heavy chain via glycine-serine linker; SEQ ID NO: 71 (protein) light: EIVLTQSPGTLSLSPGERATLSCRASQSVSSSYLAWYQQKPGQAPRLLIYGASSRATGIPDRFSGSGSGTDFTLTISRLEPEDFAVYYCQQAIGFPQTFGQGTKVEIKRTVAAPSVFIFPPSDEQLKSGTASVVCLLNNFYPREAKVQWKVDNALQSGNSQESVTEQDSKDSTYSLSSTLTLSKADYEKHKVYACEVTHQGLSSPVTKSFNRGEC heavy: [letters of about 100 residues not shown]TLAAFDYWGQGTLVTVSSASTKGPSVFPLAPSSKSTSGGTAALGCLVKDYFPEPVTVSWNSGALTSGVHTFPAVLQSSGLYSLSSVVTVPSSSLGTQTYICNVNHKPSNTKVDKRVEPKSCGSGGGSGGSLNKPPFLMLLKGSTRFNKTKTFRINQLLQDTPVASPRSVKVWQDACSPLPKTQANHGALQFGDIPTSHLLFKLPQELLKPRSQFAVDMQTTSSRGLVFHTGTKNSFMALYLSKGRLVFALGTDGKKLRIKSKEKCNDGKWHTVVFGHDGEKGRLVVDGLRAREGSLPGNSTISIRAPVYLGSPPSGKPKSLPTNSFVGCLKNFQLDSKPLYTPSSSFGVSSCTG
strongly bound | – | FabCol-p(FgHBD): fusion: 3 copies of FgHBD at C-termini of both light and heavy chains of FabCol; SEQ ID NO: 72, 73 (protein) light: EIVLTQSPGTLSLSPGERATLSCRASQSVSSSYLAWYQQKPGQAPRLLIYGASSRATGIPDRFSGSGSGTDFTLTISRLEPEDFAVYYCQQAIGFPQTFGQGTKVEIKRTVAAPSVFIFPPSDEQLKSGTASVVCLLNNFYPREAKVQWKVDNALQSGNSQESVTEQDSKDSTYSLSSTLTLSKADYEKHKVYACEVTHQGLSSPVTKSFNRGECGAGGGSGGGHRPLDKKREEAPSLRPAPPPISGGGYRARPAKAAATQKKVERKAPDAGGGSGGGSGGGHRPLDKKREEAPSLRPAPPPISGGGYRARPAKAAATQKKVERKAPDAGGGSGGGSGGGHRPLDKKREEAPSLRPAPPPISGGGYRARPAKAAATQKKVERKAPDAGGGT heavy: [letters of about 100 residues not shown]TLAAFDYWGQGTLVTVSSASTKGPSVFPLAPSSKSTSGGTAALGCLVKDYFPEPVTVSWNSGALTSGVHTFPAVLQSSGLYSLSSVVTVPSSSLGTQTYICNVNHKPSNTKVDKRVEPKSCGSGGGSGGGHRPLDKKREEAPSLRPAPPPISGGGYRARPAKAAATQKKVERKAPDAGGGSGGGSGGGHRPLDKKREEAPSLRPAPPPISGGGYRARPAKAAATQKKVERKAPDAGGGSGGGSGGGHRPLDKKREEAPSLRPAPPPISGGGYRARPAKAAATQKKVERKAPDAGGTG
